Test results: patent US10918643B2, “No-donors for the treatment of cerebrovascular vasospasms after brain hemorrhage” (Westfaelische Wilhelms-Universitaet Muenster, priority 2015, dated 2021)

Test system: cerebral vasospasm of the middle cerebral artery (MCA) after aneurismal SAH
Experiment: Transcranial Doppler (TCD) mean blood flow velocity in the MCAs, rescue treatment of one SAH patient
Details: 2nd day after SAH; increase from 130 cm/sec under anti-vasospastic therapy with Nimodipine (6x60 mg or 1-2 mg/hr i.v.)

COCCOC(=O)C1=C(C)NC(C)=C(C(=O)OC(C)C)C1c1cccc([N+](=O)[O-])c1 (stereo not shown) [Nimodipine]
mean blood flow velocity in the right MCA: 160 to 190 cm/s
